172 sequences from paper PMC6212790 can be followed below.

The list shows a part of the results. At the low end of the ranking, values are background and their order means little.

This experiment concerns the target T1, GST-Rok (full length) (UniProt O34857).
T1 sequence: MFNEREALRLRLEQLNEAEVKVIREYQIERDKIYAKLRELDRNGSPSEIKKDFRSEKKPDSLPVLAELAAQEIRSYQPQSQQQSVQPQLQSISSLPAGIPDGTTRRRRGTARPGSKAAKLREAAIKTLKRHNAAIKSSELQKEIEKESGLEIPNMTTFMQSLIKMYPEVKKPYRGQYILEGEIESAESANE
Kind of experiment: protein binding microarray.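 Further: rank score from −0.5 (least bound) to 0.5 (best bound).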 The settings on record: Rok is a gene silencer of Bacillus subtilis; high values mean tight binding; most listed sequences are background and not binding sites; double strand, one strand shown.
TACCGTGA registered a binding signal of 0.274 E-score.

As for TAAGTAAA, the binding signal came to 0.283 E-score. With TAGTCCGA, the binding signal is 0.0277 E-score. With CCGGAACA, the binding signal is -0.177 E-score. With TATTTAAA the figure was 0.216 E-score; with ACTTGAAG, -0.0519 E-score; with ACTTGTCA, 0.15 E-score.

In turn, CATCAACG came in with a binding signal of 0.0646 E-score. The sequence AGGTGTTA returned a binding signal of 0.146 E-score. The result for GAACAACC reads -0.0785 E-score; that for CAGTGTAC, 0.00685 E-score; that for CTGGCTGC, -0.185 E-score. Sequence GGTTGAAA had a binding signal of -0.00635 E-score. The sequence AGGATTAT returned a binding signal of -0.0493 E-score.

In turn, GTCAACAA yielded a binding signal of 0.0786 E-score. Sequence GATGTCAC registered a binding signal of -0.0299 E-score.

On to GCAACGGA, for which the binding signal is -0.00674 E-score. With AGGGACAT, the binding signal is -0.276 E-score.

For the sequence AGGTCGCC, the binding signal is -0.324 E-score. AGTTTGTA: the binding signal was found to be 0.391 E-score. Consider ATTGCTTA, for which the binding signal amounted to 0.215 E-score.

On to GACCTTCA, for which the binding signal was -0.123 E-score. Regarding GCCGGTCC, the binding signal was -0.305 E-score. With ATAACTCC the figure was 0.0385 E-score; with GACTATGA, 0.0759 E-score.

In turn, CACTCGCA came in with a binding signal of -0.137 E-score. On to CTGGCAAA, for which the binding signal was -0.152 E-score.

ACCCCAGT: the binding signal is -0.265 E-score.

The sequence CCTGGTAG had a binding signal of 0.162 E-score. Turning to CGCACTCA, the binding signal was -0.0239 E-score. The sequence AACCATCT displayed a binding signal of 0.0695 E-score. With GCTGTTAC the figure was 0.0614 E-score; with AGACCACC, -0.235 E-score. With GTTCGAAC the figure was 0.112 E-score; with CGTTCCTA, -0.184 E-score; with AGGAGGAA, -0.159 E-score. The result for GACTCAAA reads -0.227 E-score; that for AAGGGGCC, -0.402 E-score. The sequence CATAGTCG had a binding signal of 0.0771 E-score.

The sequence AGCCTGGA displayed a binding signal of -0.235 E-score.

Sequence CTCTCGAA registered a binding signal of 0.161 E-score.

Regarding TACGTGAA, the binding signal came to 0.0262 E-score. With GTAATAAA the figure was 0.256 E-score; with ATAGCCGA, 0.0795 E-score; with CGTGATGA, -0.14 E-score. On to AGGACTAT, for which the binding signal turned out to be 0.0648 E-score. On to CGCACCTA, for which the binding signal is 0.0485 E-score. In the case of CCTCGAAA, the binding signal is -0.0453 E-score. In turn, TACTCCAA showed a binding signal of -0.0314 E-score. CGGCACCC yielded a binding signal of -0.399 E-score.

Take CGAAGGAC: the binding signal was -0.156 E-score. The result for CTTGGTTC reads 0.00681 E-score; that for CGTCCGAA, -0.163 E-score.

Regarding CATTTCAA, the binding signal worked out at 0.129 E-score. On to AAGTCACA, for which the binding signal amounted to 0.0824 E-score. Turning to CAACCGAA, the binding signal stood at 0.0943 E-score.

In turn, AATCGATT displayed a binding signal of -0.114 E-score. With GCGATTCA the figure was -0.0567 E-score; with CGAGGTCC, -0.0704 E-score; with AAATTCTT, 0.0789 E-score. CTAGAAGC gave a binding signal of -0.238 E-score. CGGGCATA displayed a binding signal of -0.181 E-score. The result for ATTTCTTA reads 0.221 E-score; that for ACATGCTC, 0.0616 E-score; that for AACCCCTC, -0.277 E-score.

In the case of TACCCAAA, the binding signal amounted to 0.0654 E-score.

Regarding AACGACTG, the binding signal was -0.173 E-score. With CCAGCCCC the figure was -0.386 E-score; with CACTTAGC, -0.0109 E-score. With CGGCACGA the figure was -0.229 E-score; with AGGCCATC, -0.213 E-score; with GACATGCA, -0.116 E-score. Regarding CCTCCTCA, the binding signal is -0.243 E-score. With GTGACCCA the figure was -0.217 E-score.

Sequence CGCTTGCC had a binding signal of -0.163 E-score. With CTAGCATC the figure was 0.186 E-score; with AATGCGAA, 0.112 E-score. With CGAGCCAG the figure was -0.198 E-score; with CAAGACCC, -0.25 E-score.

Sequence AACCGTGT yielded a binding signal of -0.0422 E-score. Turning to TGCACAAA, the binding signal was 0.0303 E-score. Consider CTATCCAA, for which the binding signal came out at 0.00992 E-score. TAGAAGCA registered a binding signal of 0.232 E-score. Consider CGAATCAC, for which the binding signal is -0.0354 E-score.

AGGTTAGC: the binding signal is -0.13 E-score.

Turning to GTACCGAA, the binding signal is 0.0505 E-score.

In turn, GGAACGCA returned a binding signal of -0.0595 E-score. Take TCACGAAA: the binding signal was -0.0736 E-score. The sequence CAAGATTA gave a binding signal of 0.188 E-score.

Sequence AGTATTCC displayed a binding signal of -0.157 E-score. With ATGCCAAA, the binding signal is -0.267 E-score. The result for AGGTACAC reads 0.0344 E-score; that for ATTAAGCC, 0.0565 E-score; that for CGTCGCTA, 0.116 E-score. GTGCTGCA: the binding signal is -0.0388 E-score.

Turning to AAAGACTA, the binding signal turned out to be 0.00582 E-score. In turn, GGCGGTGA returned a binding signal of -0.209 E-score. GGTATGAA had a binding signal of 0.2 E-score.

AGTCGACC gave a binding signal of -0.119 E-score. In turn, CATGATTC gave a binding signal of -0.12 E-score. AATCAAGT displayed a binding signal of 0.00372 E-score. Consider AAGGTTAG, for which the binding signal is -0.0085 E-score. Sequence ACGGTCGA came in with a binding signal of -0.0327 E-score. On to AGGAGTAG, for which the binding signal turned out to be 0.025 E-score. Regarding CATTGTTA, the binding signal amounted to 0.15 E-score.

As to CCCTGCGC, the binding signal was -0.125 E-score. CCTTCTGA: the binding signal is -0.231 E-score. In turn, ATCCAAAA showed a binding signal of -0.016 E-score.

With CGACTATC, the binding signal was -0.0436 E-score. Regarding AAGTCACC, the binding signal is -0.0643 E-score. The result for TCTGTTCA reads 0.00908 E-score; that for GGCCACTA, -0.0902 E-score. As for CTTGTGCC, the binding signal is -0.142 E-score. Sequence CCAAACCA gave a binding signal of -0.0489 E-score. In turn, AGACTCGG gave a binding signal of -0.0684 E-score. AGCACTCC: the binding signal is -0.179 E-score. Sequence ATAGGGGC had a binding signal of -0.324 E-score. The sequence TTTATAAA came in with a binding signal of 0.367 E-score. ATGTGTGA came in with a binding signal of 0.0497 E-score. Consider AAATTTTG, for which the binding signal came to 0.27 E-score. ACGCACAG: the binding signal was -0.135 E-score. The sequence CGCTTAGC displayed a binding signal of -0.391 E-score.

In the case of ACGCTATC, the binding signal was found to be 0.0688 E-score.

The sequence GAGCAAAA displayed a binding signal of -0.162 E-score.

Sequence CGCAAACG returned a binding signal of -0.0776 E-score. ACGGGCTC had a binding signal of -0.119 E-score. Sequence GACGGGGA gave a binding signal of -0.329 E-score. CCTCATTC displayed a binding signal of -0.294 E-score.

Sequence AGAAGGGC yielded a binding signal of -0.22 E-score.

In turn, GCCACCGA returned a binding signal of -0.0465 E-score. Regarding TCAGTCAA, the binding signal was -0.163 E-score. Regarding GGGTGTTA, the binding signal was -0.0193 E-score. Consider ATAGCTAG, for which the binding signal came to 0.273 E-score.

In turn, GCAGGTAC gave a binding signal of -0.00983 E-score.

On to CGCAGGGC, for which the binding signal was -0.382 E-score. The result for AAAGGGCG reads -0.151 E-score; that for ATCGAGAT, 0.0642 E-score; that for GTTATAAC, 0.211 E-score. As for GCTGAGCA, the binding signal came out at 0.0236 E-score.

AGTAGAAC: the binding signal is 0.267 E-score. The sequence AGATAAGA displayed a binding signal of 0.0499 E-score. Turning to ACATCATG, the binding signal was found to be 0.0276 E-score. With ACGGGATG the figure was -0.166 E-score; with ACGCCAAC, -0.114 E-score. Regarding CCGCCGTC, the binding signal is -0.318 E-score. For CTTACCCC, the binding signal was -0.287 E-score. On to ATGTTTTC, for which the binding signal was 0.205 E-score.

On to CCCCGATA, for which the binding signal was -0.136 E-score. The result for CGTTTATA reads 0.171 E-score; that for GGACTGTA, 0.116 E-score.

Consider ACCAGGGG, for which the binding signal is -0.271 E-score. Consider GTACCCGA, for which the binding signal amounted to 0.0636 E-score. CCCGTCTC came in with a binding signal of -0.42 E-score. As for AGAAAGCT, the binding signal turned out to be 0.19 E-score. On to ACAGGCTG, for which the binding signal is -0.101 E-score. In turn, CTTATCGC registered a binding signal of 0.0133 E-score. For the sequence CACTTAAG, the binding signal is -0.218 E-score.

On to AGATGAGC, for which the binding signal came out at 0.0086 E-score. The sequence GATACCGC showed a binding signal of 0.0322 E-score. Sequence GCGCTAAA displayed a binding signal of 0.0543 E-score.

CGACTGAC displayed a binding signal of 0.00526 E-score. With ATAGGGCA the figure was -0.0627 E-score; with GAAATCAC, 0.0294 E-score; with CGGGGCTA, -0.239 E-score.

With AGTTTCTC, the binding signal worked out at 0.274 E-score. For the sequence ATGTGTCC, the binding signal was found to be 0.00991 E-score.

GGAAAACC yielded a binding signal of -0.181 E-score. GATCGCAA came in with a binding signal of 0.0539 E-score. The sequence GCACCTAC displayed a binding signal of 0.0861 E-score.

Regarding CAAATCAC, the binding signal amounted to 0.144 E-score. The result for AGTAACGG reads 0.256 E-score; that for ACAGCTCG, -0.0502 E-score.
